Source: PubChem BioAssay AID463173 (ICCB-Longwood Screening Facility, Harvard Medical School, 2010)
Hit rate of the full screen: of about 52,000 compounds, about 1,700 (3.3%) were called active. No stated cut-off is given here; in the data, active means survival mostly below about 52% (no sharp cut-off); inactive means mostly above about 56%. The list shows a part of the results.

These compounds were tested on Wild type (assay: growth inhibition of S. aureus wild type versus tarO mutant, primary screen, teichoic acid synthesis inhibitors, RN4220, OD600 (AID 463173)). Settings: S. aureus RN4220 wild type/DeltatarO growth, OD600, 18 h, hits give low values, screened at 18.75 µg/mL (by protocol).

| SMILES | survival |
| --- | --- |
| Oc1c(C(c2ccccc2)N2CCN(c3cccc(Cl)c3)CC2)sc2nc(-c3ccco3)nn12 (configuration not stated) | inactive: 88% |
| Cc1ccc(CSc2ncc(Cl)c(C(=O)Nc3nc4ccc(C)cc4s3)n2)cc1 | inactive: 86% |
| Cc1ccc(NC(=O)c2cc3nc(-c4ccc5c(c4)OCO5)cc(C(F)(F)F)n3n2)cc1Cl | inactive: 76% |
| O=C(NCc1ccc(F)cc1)c1ccc(CS(=O)Cc2ccc(Cl)cc2)o1 (configuration not stated) | inactive: 106% |
| O=c1c(=O)n(-c2ccccc2)ccn1Cc1cccc(C(F)(F)F)c1 | inactive: 108% |
| O=C1COc2ccc(-c3cc(-c4ccc(F)cc4)c4c(n3)-c3cc(Cl)ccc3OC4)cc2N1 | inactive: 81% |
| COc1ccccc1CNS(=O)(=O)c1cc(Br)cc2c1N(C(C)=O)C(C)C2 (configuration not stated) | inactive: 64% |
| Cc1ccc(N2CC(c3nnc(Cc4ccc(F)cc4)o3)CC2=O)cc1 (configuration not stated) | inactive: 25% |
| Cc1c(C(=O)Nc2ccccc2Cl)sc2ncnc(N(C)C3CCCCC3)c12 | inactive: 81% |
| CCc1ccc(CNC(=O)C2CCCN(c3nnc(C)c4c(C)n(-c5ccc(OC)cc5)nc34)C2)cc1 (configuration not stated) | inactive: 71% |
| O=C(Cc1cccs1)Nc1ccccc1 | inactive: 105% |
| COc1cc(Cl)c(NC(=O)c2cc(CN3CCCC3)on2)c(OC)c1 | inactive: 73% |
| Cc1oc(-c2ccccc2F)nc1CSCC(=O)NCc1ccccc1 | inactive: 62% |
| Cc1cccc(C)c1NC(=O)CSc1ncc2c(n1)-c1ccc(Cl)cc1N(Cc1ccccc1)S2(=O)=O | active: -2% |
| COc1ccc(Cn2ccnc2SCC(=O)NC2CCCC2)cc1 | inactive: 87% |
| CC(CCc1ccccc1)NC(=O)Cn1c(=O)nc(-c2ccccc2F)c2cc(Cl)ccc21 (configuration not stated) | inactive: 70% |
| COc1ccc2c(c1)CC(C(=O)Nc1cccc(C)c1C)CO2 (configuration not stated) | inactive: 79% |
| CC(C)c1ccc(NC(=O)C2CCCN(S(=O)(=O)c3cccc4nsnc34)C2)cc1 (configuration not stated) | inactive: 70% |
| COc1cccc(-n2ccnc2SCC(=O)Nc2ccc(Cl)c(Cl)c2)c1 | inactive: 140% |

| SMILES | survival |
| --- | --- |
| COC(=O)c1ccc(NS(=O)(=O)c2c(C)nc3sccn3c2=O)cc1 | inactive: 85% |
| O=C(CSc1nccn1-c1ccc(Cl)cc1)Nc1cccc2ccccc12 | inactive: 74% |
| CSc1ccc(CCNC(=O)c2ccc3c(c2)nc2n3CCCCC2)cc1 | inactive: 99% |
| CCOC(=O)Cn1c(=O)n(C2CCCCC2)c2nc(-c3ccc(OCC)cc3)nc(C(N)=O)c21 | inactive: 117% |
| COc1ccc(C2CC(=O)c3cnc4c(-c5ccccc5)c(C)nn4c3C2)cc1OC (configuration not stated) | inactive: 71% |
| Cc1nn(C)c2c1c(C(F)(F)F)cc(=O)n2C(C)C(=O)NCCc1ccc(Cl)cc1 (configuration not stated) | inactive: 81% |
| Cc1c(-c2cccc(NC(=O)c3ccc(F)c(F)c3)c2)nc2ncccn12 | inactive: 71% |
| COCCOC(=O)c1c(C)oc2c1cc(NS(=O)(=O)c1ccc(Cl)c(C)c1)c1ccccc12 | inactive: 58% |
| CCc1ccccc1NS(=O)(=O)c1ccc2oc(=O)c3ncn(C)c3c2c1 | inactive: 124% |
| COc1ccc(OC)c(NC(=O)CSc2nnc(NC(=O)C3CC3)s2)c1 | inactive: 135% |
| COc1ccc(OCc2ccc(-c3nc(C#N)c(NCc4ccccc4)o3)o2)cc1 | inactive: 83% |
| Cc1ccc(Oc2coc3cc(OCC(=O)NC4CCCCC4)ccc3c2=O)cc1 | inactive: 77% |
| N#Cc1ccc(C(=O)Nc2ccccc2-c2nc3ccccc3s2)c(F)c1 | inactive: 78% |
| CNS(=O)(=O)c1ccc(NC(=O)c2cnn3c(C(F)F)cc(-c4ccccc4)nc23)cc1 | inactive: 67% |
| CCOC(=O)c1cnc2c(Cl)c(Cl)ccc2c1NCCN1CCOCC1 | inactive: 69% |
| CCOC(=O)Cc1ccc(NC(=O)n2ncc3cc(Cl)ccc32)cc1 | inactive: 85% |
| O=C(Nc1ccc(F)cc1Cl)C1CCN(c2ncnc3c2nc2n3CCCCC2)CC1 | inactive: 77% |
| S=c1[nH]c2c(s1)sc1ccccc12 | inactive: 57% |
| CN(C1CCCCC1)S(=O)(=O)c1ccc2c(c1)c(=O)c(C(=O)NCc1ccccc1Cl)cn2C | inactive: 79% |

| SMILES | survival |
| --- | --- |
| CCOc1ccc(C2C(C(=O)OC)=C(C)NC3=C2C(=O)c2ccccc23)cc1OC (configuration not stated) | inactive: 68% |
| CCc1ccc(NC(=O)C2CCCN(c3nn4cc(-c5ccc(OC)cc5)nc4s3)C2)cc1 (configuration not stated) | inactive: 73% |
| Cc1ccc(NC(=O)c2c(C)oc3ccc(O)c(CN4CCCC4)c23)c(C)c1 | inactive: 85% |
| Cc1ccc2onc(CNC(=O)Nc3ccccc3C#N)c2c1 | inactive: 85% |
| O=C(NCC(c1ccc2c(c1)OCO2)N1CCN(c2ccc(F)cc2)CC1)c1cccc([N+](=O)[O-])c1 (configuration not stated) | inactive: 83% |
| COc1cccc(CNC(=O)CCc2c(C)nc3c(c2C)c(=O)n(C)c(=O)n3C)c1 | inactive: 87% |
| CCc1ccccc1NC(=O)CSc1ncccc1C(=O)O | inactive: 89% |
| O=C(CN(Cc1ccco1)C(=O)c1nsc(Cl)c1Cl)NC1CCCCC1 | inactive: 119% |
| COc1ccc(Nc2ncnc3c2c(-c2ccccc2)cn3-c2ccc(C)c(Cl)c2)cc1OC | inactive: 78% |
| O=C(NCCc1ccc(Cl)cc1)c1ccc(Cn2c(=O)[nH]c3ccccc3c2=O)cc1 | inactive: 119% |
| CC(=O)c1cccc(Nc2ncnc3c2cnn3C)c1 | inactive: 76% |
| CCOc1ccccc1NC(=O)Cc1csc(COc2cccc(C)c2)n1 | inactive: 101% |
| Cc1cccc(NC(=O)CSC2=Nc3ccccc3C3=NC(CCC(=O)NCc4ccc(F)cc4)C(=O)N23)c1 (configuration not stated) | inactive: 89% |
| CC(=O)c1ccc(NS(=O)(=O)c2cnc(N)nc2)cc1 | active: 1% |
| Cc1ccc(C(=O)CSc2ncn(-c3ccccc3)n2)cc1 | inactive: 110% |
| CCOc1ccc(CN2C(=O)c3ccccc3Sc3ccc(C(=O)NCCc4ccccc4)cc32)cc1 | inactive: 72% |
| CC(C)=CCC(C)(C)C1OCCN1C(=O)Nc1ccccc1 (configuration not stated) | inactive: 126% |
| COc1ccc2[nH]cc(CCNC(=O)Nc3cccc(F)c3)c2c1 | inactive: 90% |
| Cc1ccc(-n2c3c(c(=O)[nH]c2=O)C(NS(=O)(=O)c2ccc(C)cc2)(C(F)(F)F)C(=O)N3)cc1 (configuration not stated) | inactive: 75% |
